Experimental data: the supplement of paper PMC9334596
Where “and” joins values, the source holds several entries; their conditions need not be identical. Equal values may be shown once. Over roughly 5,300 compounds, “PER2::LUC luminescence relative to vehicle control” has its median near 0.96; the highest 2% begin near 1.3. The list shows a part of the results.

System: mPer2Luc MEF
Test: PER2::LUC luminescence relative to vehicle control (fold of vehicle); higher = higher PER2::LUC reporter signal
Conditions: 10 µM
Outline: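 Each value gives PER2::LUC luminescence as fold of vehicle control, measured with the ONE-Glo luciferase assay system in mouse embryonic fibroblasts carrying the mPer2Luc reporter. Cells grown in DMEM with 10% FBS at 37 °C and 5% CO2 were seeded at ~3000 per well in 384-well plates. Library compounds were added at 10 μM 48 h later, and readings were taken 24 h and 30 h after treatment.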

Row | SMILES | PER2::LUC luminescence (time after treatment 24 h) | PER2::LUC luminescence (time after treatment 30 h)
1 | NCCCC[C@H](NC(=O)[C@@H](Cc1cc(Br)c(O)c(Br)c1)NC(=O)N1CCC(N2Cc3ccccc3NC2=O)CC1)C(=O)N1CCN(c2ccncc2)CC1 | 1.01 | 0.866
2 | Cc1ccc(NC(=O)C2(c3ccc4c(c3)OC(F)(F)O4)CC2)nc1-c1cccc(C(=O)O)c1 | 1.2 and 1.15 | 1.16 and 1.12
3 | CC(C)OC(=O)C(C)(C)Oc1ccc(C(=O)c2ccc(Cl)cc2)cc1 | 0.923 | 0.88
4 | O=C1c2ccccc2C(=O)C1c1ccc(Br)cc1 | 0.477 | 0.974
5 | NC(=O)CC[C@H](N)C(=O)O | 1 and 0.849 | 0.904 and 0.867
6 | CC=CC1=C(C(=O)O)N2C(=O)[C@@H](NC(=O)[C@H](N)c3ccc(O)cc3)[C@H]2SC1 | 0.904 and 0.846 | 0.905 and 0.854
7 | O=S(=O)(O)Oc1ccc(C(c2ccc(OS(=O)(=O)O)cc2)c2ccccn2)cc1 | 0.914 | 0.992
8 | CCOC(=S)SSC(=S)OCC | 1.21 | 1.04
9 | CN1C(=O)C(Cc2c[nH]c3ccccc23)NC1=S (stereo not drawn) | 1.15 | 1.36
10 | CC1(C)C(O[C@@H]2OC[C@@H](O)[C@H](O)[C@H]2O)CC[C@]23CC24CC[C@]2(C)[C@@H]([C@@]5(C)CC[C@@H](C(C)(C)O)O5)[C@H](O)C[C@@]2(C)C4C[C@@H](O[C@@H]2O[C@H](CO)[C@@H](O)[C@H](O)[C@H]2O)C13 (stereo partly drawn) | 0.94 | 0.957
11 | Cc1cc2c(s1)Nc1ccccc1N=C2N1CCN(C)CC1 | 0.969 | 0.934
12 | CC1/C=C/C=C/C=C/C=C/C=C/C=C/C=C/C(OC2O[C@H](C)[C@@H](O)[C@H](N)[C@@H]2O)CC(O)C(C(=O)O)C(O)CC(=O)CC(O)CC(O)CC(O)CC(=O)CCCC(=O)CC(=O)OC1C(C)CC(C)C(O)CC(=O)c1ccc(N)cc1 (stereo partly drawn) | 0.901 | 0.885
13 | NC(=O)c1cccc2ncc(-c3ccc(Cl)cc3)nc12 | 1.12 | 1.16
14 | COc1cc2ncnc(Nc3cccc(Cl)c3)c2cc1OC | 0.991 and 0.715 | 0.978 and 0.705
15 | O=c1oc2cc(O)ccc2s1 | 1.07 | 0.93
16 | COc1cc2ncnc(-n3nc(-c4ccccn4)nc3N)c2cc1OC | 0.997 | 1.07
17 | CCOc1ccc2nc(S(N)(=O)=O)sc2c1 | 1.19 | 1.28
18 | c1coc(CNc2ncnc3[nH]cnc23)c1 | 0.996 | 1.06
19 | CS(=O)(=O)c1ccc(-c2nnc(/C=C/c3nnc(-c4ccc(C#N)cc4)o3)n2-c2ccccc2Cl)nc1 | 1.05 | 0.985
20 | COc1cccc(NCC(O)Cn2c3ccc(Br)cc3c3cc(Br)ccc32)c1 (stereo in doubt) | 0.88 | 0.955
21 | O=C(O)[C@H](CC(=O)N1C[C@H]2CCCC[C@H]2C1)Cc1ccccc1 | 1.24 | 1.25

Row | SMILES | PER2::LUC luminescence (time after treatment 24 h) | PER2::LUC luminescence (time after treatment 30 h)
22 | C[C@]12CCC3=C4CCC(=O)C=C4CC[C@H]3[C@@H]1CC[C@@]2(O)CC#N | 0.945 | 0.989
23 | CCOC(=O)c1cnc2c(cnn2CC)c1NN=C(C)C | 0.954 | 0.82
24 | CN1CCCN(C(c2ccccc2)c2ccc(Cl)cc2)CC1 (stereo not drawn) | 0.562 | 0.602
25 | C[C@@H]1C[C@H]2[C@@H]3CCC4=CC(=O)C=C[C@]4(C)[C@@]3(Cl)[C@@H](O)C[C@]2(C)[C@@]1(OC(=O)c1ccco1)C(=O)CCl | 0.516 | 1.13
26 | Cc1cc(Br)c(O)c2ncccc12 | 1.19 | 0.958
27 | NC(=O)c1ccc(I)c([N+](=O)[O-])c1 | 0.937 and 0.926 | 0.982 and 0.956
28 | C#C[C@]1(O)CC[C@H]2[C@@H]3CCC4=CC(=O)CC[C@@H]4[C@H]3C(=C)C[C@@]21CC | 0.753 | 1.05
29 | O=C(O)c1cc2cc(Cc3cccnc3)ccc2o1 | 0.801 | 0.865
30 | O=C(O)c1cc(/N=N/c2ccc(S(=O)(=O)Nc3ccccn3)cc2)ccc1O | 0.808 | 0.855
31 | CCCCCCCCCCCCCCCC(=O)O | 0.746 | 1.06
32 | N#C/C(=C\c1ccc(O)c(O)c1)C(=O)NCCCc1ccccc1 | 1.06 | 1.14
33 | C/C(=C\C(=O)OCCCCCCCCC(=O)O)C[C@@H]1OC[C@H](C[C@@H]2O[C@H]2[C@@H](C)[C@H](C)O)[C@@H](O)[C@H]1O | 1.12 | 1.11
34 | CC(CCCCCC(=O)Nc1ccc(C(F)(F)F)cc1)NCCc1cnc[nH]1 (stereo not drawn) | 0.89 | 1.01
35 | CN/C(=N\CCSCc1nc[nH]c1C)NC#N | 0.925 | 1.02
36 | c1ccc(C2CN3CCSC3=N2)cc1 (single isomer, unassigned; (-)) | 1.15 | 0.882
37 | N[C@@H](CSCSC[C@H](N)C(=O)O)C(=O)O | 0.992 | 1.08
38 | O=C(O)c1cc(N(Cc2ccccc2O)Cc2cc(O)ccc2O)ccc1O | 1.05 | 1.03
39 | C[C@]12CCC(=O)C=C1[C@@H]1C[C@@H]1[C@H]1[C@@H]3[C@@H]4C[C@@H]4[C@@]4(CCC(=O)O4)[C@@]3(C)CC[C@@H]12 | 0.925 | 1.03
40 | CC1=CC(=O)CC(C)(C)C1(O)/C=C/C(C)=C\C(=O)O (racemic) | 1.01 | 1.02
41 | N#Cc1cc(CN2CCC(Nc3ncnc4sc(Cl)cc34)CC2)ccc1F | 0.839 | 0.912
42 | COc1ccc2cc([C@H](C)C(=O)O)ccc2c1 | 0.987 and 1.09 and 0.7 | 0.972 and 0.822 and 0.852

Row | SMILES | PER2::LUC luminescence (time after treatment 24 h) | PER2::LUC luminescence (time after treatment 30 h)
43 | CS(=O)(=O)Nc1c(O)ccc2c1CCCC2C1=NCCN1 (stereo not drawn) | 1.08 | 1.06
44 | Nc1ncnc2c1ncn2[C@@H]1O[C@H](COP(=O)(O)OP(=O)(O)OP(=O)(O)OP(=O)(O)OC[C@@H]2O[C@H](n3cnc4c(N)ncnc43)C(O)[C@@H]2O)[C@H](O)C1O (stereo partly drawn) | 0.957 | 0.901
45 | Nc1cc(N2CCCCC2)nc(N)[n+]1[O-] | 1.09 | 1.04
46 | COc1ccc(C[C@H]2c3cc(OC)c(OC)cc3CC[N+]2(C)C)cc1OC | 0.944 | 0.889
47 | CC1=C(/C=C/C(C)=C/C=C/C(C)=C\CO)C(C)(C)CCC1 | 1.08 | 1.03
48 | O=C(O)c1ccc2nc(-c3cc(Cl)cc(Cl)c3)oc2c1 | 1.42 | 1.43
49 | C/C=C(/C(=C/C)c1ccc(O)cc1)c1ccc(O)cc1 | 0.911 | 0.979
50 | Cc1ncc([N+](=O)[O-])n1CC(C)O (stereo not drawn) | 0.949 and 1.15 | 1.08 and 1.1
51 | CCNCc1cc(C(C)(C)C)c(O)c(C(C)(C)C)c1 | 1.04 | 0.978
52 | O=C(O)c1ccccc1OP(=O)(O)O | 0.88 | 1.03
53 | COC(=O)c1c(C)cc(OC(=O)c2c(C)cc(O)c(C=O)c2O)c(C)c1O | 0.967 | 0.979
54 | OC1(c2ccc(Cl)cc2)CCN(Cc2c[nH]c3ccccc23)CC1 | 0.66 | 0.717
55 | COc1ccccc1N1CCN(CCN(C(=O)c2ccc(I)cc2)c2ccccn2)CC1 | 0.942 | 0.975
56 | OCCn1cc(-c2cnc3nnn(Cc4ccc5ncccc5c4)c3n2)cn1 | 1.15 | 1.04
57 | CC1=C(/C=C/C(C)=C/C=C/C(C)=C/CO)C(C)(C)CCC1 | 1.35 and 1.26 and 1.07 | 1.26 and 1.06 and 1.11
58 | Oc1ccc(-c2nc(-c3ccc(F)cc3)c(-c3ccncc3)[nH]2)cc1 | 0.39 | 0.695
59 | N#CCc1ccccc1C#Cc1ccc(CCC(=O)O)c(F)c1 | 1.31 | 1.28
60 | O=C(Nc1ccc(S(=O)(=O)Nc2ccccc2Cl)c(Cl)c1)c1ccccn1 | 0.992 | 1.06
61 | CCC(NC(C)C)C(O)c1ccc(O)c2[nH]c(=O)ccc12 (stereo not drawn) | 1.03 | 0.916
62 | O=C(NC[C@H](O)CO)c1ccncc1Nc1ccc(I)cc1F | 0.286 | 0.223
63 | O=C(O)c1ccc2cc(-c3ccc(O)c(C45CC6CC(CC(C6)C4)C5)c3)ccc2c1 | 1.59 | 1.63

Row | SMILES | PER2::LUC luminescence (time after treatment 24 h) | PER2::LUC luminescence (time after treatment 30 h)
64 | COc1ccc([C@@H](C)C(=O)c2ccc(O)cc2O)cc1 | 1.1 | 1.08
65 | O=C(/C=C/c1ccccc1)c1ccc(O[C@@H]2O[C@H](CO)[C@@H](O)[C@H](O)[C@H]2O)cc1O | 1.21 | 1.27
66 | O=C(O)[C@@]1(CCCCCCOc2ccc(Cl)cc2)CO1 | 0.936 | 1.01
67 | C=C[C@H]1CN2CC[C@H]1C[C@H]2[C@H](O)c1ccnc2ccc(OC)cc12 | 1.04 and 0.874 and 0.512 | 0.948 and 0.925 and 1.01
68 | CC[C@H](C)[C@H](NC(=O)[C@H](Cc1ccc(O)cc1)NC(=O)[C@@H](NC(=O)[C@H](CCCNC(=N)N)NC(=O)[C@@H](N)CC(=O)O)C(C)C)C(=O)N[C@@H](Cc1c[nH]cn1)C(=O)N1CCC[C@H]1C(=O)O | 0.993 | 0.917
69 | c1cc(NC2CCNCC2)nc(-c2cnc3ccccn23)c1 | 0.506 | 0.487
70 | CC1(C)S[C@@H]2[C@H](NC(=O)[C@H](N)c3ccccc3)C(=O)N2[C@H]1C(=O)O | 1.04 and 0.885 | 0.911 and 0.808
71 | Cc1ccccc1C(C(=O)NC1CCCCC1)N(C(=O)Cn1ccnc1C)c1cccc(F)c1 (stereo not drawn) | 0.955 | 0.931
72 | O=C(O)c1cc(=O)[nH]c(=O)[nH]1 | 1.03 | 1
73 | O=C([O-])CN1CCN(CC(=O)[O-])CCN([C@H](CO)[C@H](O)CO)CCN(CC(=O)[O-])CC1.[Gd+3] (racemic) | 1.03 | 1.04
74 | O=c1n(CCCN2CCN(c3cccc(Cl)c3)CC2)nc2ccccn12 | 0.773 | 0.747
75 | CC(=O)NCCCCCC(=O)O | 0.89 | 1.17
76 | CCC(=O)c1ccc2c(c1)N(CCCN(C)C)c1ccccc1S2 | 0.817 | 0.807
77 | CSc1nc2cc(Cl)c(Oc3cccc(Cl)c3Cl)cc2[nH]1 | 0.808 | 0.856
78 | Cc1nc2ccccn2c(=O)c1CCN1CCC(C(=O)c2ccc(F)cc2)CC1 | 0.574 | 0.838
79 | O=C(CCNNC(=O)c1ccncc1)NCc1ccccc1 | 0.857 | 0.82
80 | Cc1cnc(-c2ccccc2C(C)C)nc1NCc1ccc(-n2ccnn2)cc1 | 0.666 | 0.596
81 | N/C(=N\C(=O)c1nc(Cl)c(N)nc1N)NCc1ccccc1 | 1.08 | 0.986
82 | CCCn1c(=O)c2[nH]c(C3CCCC3)nc2n(CCC)c1=O | 0.967 | 0.935
83 | Cn1nnc(-c2ccc(-c3ccc(N4C[C@@H](CO)OC4=O)cc3F)cn2)n1 | 1.01 | 1.09
84 | CCCCC[C@H](O)/C=C/[C@H]1[C@H](O)CC(=O)[C@@H]1C/C=C\CCCC(=O)O | 1.09 | 1.07
